Data: PubChem BioAssay AID504332 (National Center for Advancing Translational Sciences (NCATS), 2011)
“And” between values parts separate entries of the source, which are not always exact repeats. Equal values may be shown once. In all, about 350,000 compounds went through this assay and about 31,000 (8.9%) were called active. Inconclusive results, whose numbers are uncertain, are shown with a selection of clear calls. The call rests on the fitted dose curve; in most records, active means well fitted inhibition curve with a large enough effect; inconclusive means small, poorly fitted or top-dose-only effect; inactive means no such curve, though single readings can be large or run the other way. Potencies of inconclusive entries are doubtful fits and often do not repeat.

The compounds below were run against Histone-lysine N-methyltransferase EHMT2 (Homo sapiens) (UniProt Q96KQ7) (assay: qHTS Assay for Inhibitors of Histone Lysine Methyltransferase G9a). Settings: G9a H3K9 monomethylation, AlphaScreen, 2 h; activity, negative = inhibition: at 59 µM (top of the series) unless noted.
In short: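 Chemiluminescent proximity detection of H3K9 monomethylation, read after 10 min bead incubation in the dark. Reaction: 20 nM G9a, 500 nM biotin-H3K9 peptide, 20 uM SAM cofactor, 2 h, room temperature, following 15 min enzyme-compound preincubation.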
Further: nearly all actives have a fitted effect of over 75% in size.
On the % scale 0 is the no-effect control and ±100 the full control effect; potency means the concentration at half of the fitted maximal effect; tags describe the fitted curve by direction and shape.

Chain of UniProt Q96KQ7 (Q96KQ7 whole entry, looked up): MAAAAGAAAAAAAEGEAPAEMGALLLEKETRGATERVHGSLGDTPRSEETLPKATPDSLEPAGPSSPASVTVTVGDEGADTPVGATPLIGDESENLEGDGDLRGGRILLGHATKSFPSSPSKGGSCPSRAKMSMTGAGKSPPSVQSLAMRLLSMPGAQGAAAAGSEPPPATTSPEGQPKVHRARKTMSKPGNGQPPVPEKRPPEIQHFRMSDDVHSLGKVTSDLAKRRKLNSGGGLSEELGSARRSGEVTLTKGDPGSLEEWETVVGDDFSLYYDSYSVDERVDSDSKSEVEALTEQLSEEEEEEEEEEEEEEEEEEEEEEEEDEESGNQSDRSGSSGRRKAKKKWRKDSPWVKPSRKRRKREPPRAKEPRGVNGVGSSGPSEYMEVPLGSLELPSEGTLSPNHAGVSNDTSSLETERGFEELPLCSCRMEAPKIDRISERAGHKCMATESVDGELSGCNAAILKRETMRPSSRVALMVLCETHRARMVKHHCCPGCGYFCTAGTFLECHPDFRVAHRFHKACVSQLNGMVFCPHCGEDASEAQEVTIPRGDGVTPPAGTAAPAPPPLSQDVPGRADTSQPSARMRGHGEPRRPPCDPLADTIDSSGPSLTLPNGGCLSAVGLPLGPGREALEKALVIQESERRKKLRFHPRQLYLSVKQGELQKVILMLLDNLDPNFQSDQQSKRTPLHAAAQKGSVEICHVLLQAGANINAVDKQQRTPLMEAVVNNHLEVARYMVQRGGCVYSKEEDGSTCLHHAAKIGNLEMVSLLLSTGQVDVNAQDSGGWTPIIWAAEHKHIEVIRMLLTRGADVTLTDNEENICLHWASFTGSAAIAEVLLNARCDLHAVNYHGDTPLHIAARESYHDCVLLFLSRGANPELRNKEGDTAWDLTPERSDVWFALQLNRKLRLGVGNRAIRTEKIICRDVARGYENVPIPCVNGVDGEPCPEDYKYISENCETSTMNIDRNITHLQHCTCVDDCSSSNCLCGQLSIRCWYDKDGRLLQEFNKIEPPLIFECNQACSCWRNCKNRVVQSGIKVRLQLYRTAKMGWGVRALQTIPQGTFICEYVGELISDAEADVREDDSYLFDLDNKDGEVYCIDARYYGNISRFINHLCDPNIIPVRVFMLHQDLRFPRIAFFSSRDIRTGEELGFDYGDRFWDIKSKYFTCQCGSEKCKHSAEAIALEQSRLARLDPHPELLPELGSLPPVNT

Structure (SMILES) | Potency | activity, negative = inhibition
Cc1cc(F)ccc1-n1nnc(C(N)=O)c1C | inactive | 
Cc1ccc(-c2csc(NC(=O)c3ccc(Br)cc3)c2C(=O)O)cc1 | inactive | 
Cc1nc(N2CCN(Cc3ccc4c(c3)OCO4)CC2)nc2c1C(=O)CC(c1ccco1)C2 (configuration not stated) | active: 39.8 µM | 
Cc1ccc(Nc2ccc([N+](=O)[O-])nc2[N+](=O)[O-])cc1 | inconclusive: 44.7 µM [inhibitor, partial curve] | 
CCOC(=O)C1=C(c2ccccc2)OC(N)=C(C#N)C1c1ccc(Br)s1 (configuration not stated) | inconclusive: 17.8 µM [inhibitor, single point] | 
CC1(c2ccccc2)NC(=O)N(CC(=O)Nc2nc(-c3ccccn3)cs2)C1=O (configuration not stated) |  | inactive: -43% [at 2.33 µM]
OCCC1CN(Cc2nc(-c3ccccc3)cs2)CCN1CCc1ccccc1 (configuration not stated) | inconclusive: 31.6 µM [inhibitor, partial curve] | 
NC(=O)c1nsnc1-c1ccccc1O | inconclusive: 35.5 µM [inhibitor, partial curve] | 
Cc1ccc(NC(=O)CSc2c3c(nc4ccccc24)CCCC3)cc1F | inactive | 
CC(Sc1nnc(C2CC2)n1C1CC1)C(=O)c1ccc(Br)cc1 (configuration not stated) | inconclusive: 79.4 µM [inhibitor, single point] | 
O=C(NCc1n[nH]c(=S)n1-c1cccc(Cl)c1)c1ccc(S(=O)(=O)N2CCCC2)cc1 | inconclusive: 0.708 µM [inhibitor, full curve, poor fit] | 
O=S(=O)(NCCc1ccccc1)c1ccc(Cl)nc1 | inactive | 
O=C(Nc1cc(C(=O)N2CCCC2)ccc1N1CCCC1)c1ccccc1F | inconclusive: 2 µM [inhibitor, partial curve, poor fit] | 
CCCCn1c(N)c(N(CCOC)C(=O)c2cc(-c3ccccc3)nc3ccccc23)c(=O)[nH]c1=O | inactive | 
Clc1ccc(OCc2nc3ccccc3[nH]2)cc1 | inactive | 
O=C1/C(=C\c2c(NCCOCCO)nc3ccccn3c2=O)SC(=S)N1Cc1ccco1 | active: 39.8 µM | 
COc1ccccc1OCC(=O)Nc1ccc(S(=O)(=O)NC(C)=O)cc1 | inconclusive: 39.8 µM [inhibitor, single point] | 
CCc1cc(C(=O)NNC(=S)Nc2ccccc2C)cs1 | inconclusive: 25.1 µM [inhibitor, single point] | 
CCN1CCN(CCCNC(=O)c2ccc3c(c2)N(Cc2ccccc2)CCS3)CC1 | inconclusive: 79.4 µM [inhibitor, single point] | 
CCN1CCN(c2ccc(S(=O)(=O)N3CCCCC3)cc2NC(=O)c2cccc(C)c2[N+](=O)[O-])CC1 | active: 50.1 µM | 
CCOC(=O)CN(C(=O)CSc1nnc(-c2ccncc2)n1CCCN(C)C)c1ccccc1 | active: 2.82 µM | 
Cc1cc(=O)n(CC(=O)Nc2ccc([N+](=O)[O-])cc2)c(-n2nc(C)cc2C)n1 | inconclusive: 12.6 µM [inhibitor, partial curve, poor fit] | 
C=CCNC(=O)C1CC(=O)N(c2ccc(Br)cc2)C1 (configuration not stated) | inactive | 
CCCCN(CCCC)CCCOC(=O)c1ccc(N)cc1 | inactive | 

Structure (SMILES) | Potency | activity, negative = inhibition
ON1C2CCCCC2N(O)C1c1c(F)c(F)c(F)c(F)c1F (configuration not stated) | inconclusive: 39.8 µM [inhibitor, partial curve, poor fit] | 
OC(CN1CCOCC1)Cn1c2ccccc2c2ccccc21 (configuration not stated) | inconclusive: 1.12 µM [inhibitor, partial curve, poor fit] | 
O=C(Nc1cccc(Br)c1)c1ccccc1-c1ccccc1 | inactive | 
Cc1cc(C)c(NC(=O)NC2CCCCC2)c(C)c1 | inconclusive: 89.1 µM [inhibitor, single point] | 
COCCCN1C(=O)C(=O)/C(=C(/O)c2ccc(S(=O)(=O)N3CCCCC3)cc2)C1c1ccc(O)c(OC)c1 (configuration not stated) | inconclusive: 89.1 µM [inhibitor, single point] | 
CC(C)S(=O)(=O)c1oc(-c2ccc(F)cc2)nc1S(=O)(=O)c1ccccc1 | inconclusive: 39.8 µM [inhibitor, partial curve, poor fit] | 
O=C(O)c1cc(Cl)c(Cl)cc1C(=O)Nc1cccnc1 | inconclusive: 79.4 µM [inhibitor, single point] | 
Cc1ccc(C(=O)CC(C(=O)O)c2cn(CCC#N)c3ccccc23)cc1 (configuration not stated) | inconclusive: 89.1 µM [inhibitor, single point] | 
Cc1cc(C)nc(-n2nc(C)cc2NC(=O)c2cccc(S(=O)(=O)N3CCCCC3)c2)n1 | active: 8.91 µM | 
COc1cc(C)ccc1OCCCn1c(-c2ccc(Cl)cc2)nc2ccccc2c1=O | inactive | 
Cc1ccc(NC(=O)CC2SC3=NCCN3C2=O)cc1 (configuration not stated) | active: 7.08 µM | 
CCNc1nc(NC(C)C)nc(Oc2ccc(/C=N/O)cc2)n1 | inactive | 
CC(=O)NC(=S)Nc1cccc2c(C)cc(C)nc12 | inconclusive: 50.1 µM [inhibitor, partial curve, poor fit] | 
COc1cccc(N2CCN(C(=O)c3cc4c(=O)n(Cc5ccccc5)ccc4nc3C)CC2)c1 | inactive | 
CC(=O)c1sc(N)nc1C |  | inactive: -2.73% [at 2.33 µM]
Cc1cc(C(=O)CSc2n[nH]c(N)n2)c(C)n1-c1cc(F)ccc1F |  | inconclusive: -57.4% [inhibitor]
Cn1c(N)c(C(=O)CSc2nc3ccccc3n2-c2ccccc2)c(=O)n(C)c1=O | inconclusive: 100 µM [inhibitor, single point] | 
CC(C)(C)c1ccc(S(=O)(=O)N(CCCN2CCOCC2)Cc2cccs2)cc1 | active: 14.1 µM | 
O=C1N=c2ccccc2=C1c1sc(NS(=O)(=O)c2ccccc2)nc1O | active: 50.1 µM | 
CCN(CC)CCCNC(=O)Cn1nc(C)n2c(cc3sccc32)c1=O | inactive | 
Clc1ccc(CNc2ccccc2NCc2ccc(Cl)nc2)cn1 | active: 3.16 µM | 
O=C(CSc1nc2ccccc2o1)Nc1nc2ccc(Br)cc2s1 | active: 44.7 µM | 
CCOC(=O)C1(Cc2ccccc2)CCN(Cc2cc(=O)c3ccccc3[nH]2)CC1 | inconclusive: 63.1 µM [inhibitor, partial curve, poor fit] | 
COc1ccc(N2CCN(C(CNC(=O)C(=O)NCCC3=CCCCC3)c3ccco3)CC2)cc1 (configuration not stated) | inconclusive: 28.2 µM [inhibitor, single point] | 

Structure (SMILES) | Potency | activity, negative = inhibition
Cn1c(=O)c(-c2cccc(F)c2)nc2cncnc21 |  | inactive: 0.739% [at 0.501 µM]
CC(C)N=C1NN=C(c2cccs2)CS1 | active: 20 µM | 
CC1Cc2ccccc2N1C(=O)C1CCCN(S(=O)(=O)c2cccc3cccnc23)C1 (configuration not stated) | inconclusive: 12.6 µM [inhibitor, partial curve, poor fit] | 
O=c1ccc(-c2ccc(S(=O)(=O)Nc3cccc(F)c3)o2)n[nH]1 | inconclusive: 89.1 µM [inhibitor, single point] | 
CCN=C1SC(C(=O)Nc2cccc(C(=O)O)c2)CC(=O)N1CC (configuration not stated) | inconclusive: 31.6 µM [inhibitor, single point] | 
O=C(CCCC(=O)NNC(=O)Nc1ccccc1)NNC(=O)Nc1ccccc1 | inconclusive: 39.8 µM [inhibitor, partial curve, poor fit] | 
COc1ccc(NC(=S)NNC(=O)C2CC2c2ccc(C)cc2)cc1 (configuration not stated) | active: 44.7 µM | 
Cc1nn(S(=O)(=O)c2ccccc2)c(C)c1S(=O)(=O)N1CCC(C)CC1 | inconclusive: 39.8 µM [inhibitor, single point] and inconclusive: 20 µM [inhibitor, single point] | 
O=C(COC(=O)CNS(=O)(=O)c1cccc(F)c1)NCCc1ccccc1 | inactive | 
CCc1ccccc1NC(=O)Cn1ccn(-c2cc(C)cc(C)c2)c(=O)c1=O | inactive | 
CCC1CSC(Nc2ccc(C(=O)/C=C/c3ccc(OC)c(OC)c3)cc2)=N1 (configuration not stated) | inconclusive: 17.8 µM [inhibitor, single point] | 
COc1ccc(C(=O)COC(=O)C(CCCCN2C(=O)C3C4C=CC(C4)C3C2=O)N2C(=O)C3C4C=CC(C4)C3C2=O)cc1 (configuration not stated) | inactive | 
Oc1c(N=Nc2ccc(F)cc2)ccc2ccccc12 | active: 2.51 µM | 
CCOC(=O)c1oc2ccccc2c1NC(=O)C(C)(C)C | inactive | 
Cc1c(NC(=O)COc2c(F)c(F)c(F)c(F)c2F)c(=O)n(-c2ccccc2)n1C | inactive | 
NC(=O)COc1ccc(C(=O)NCC2(N3CCOCC3)CCCCC2)cc1 |  | inactive: 41.2% [at 12.7 µM]
Cc1cc(C)cc(NC(=O)COC(=O)c2cc(=O)[nH]c(=O)[nH]2)c1 | inconclusive: 50.1 µM [inhibitor, partial curve] | 
Cc1ccc(NC(=O)Nc2ccccc2)c(Br)c1 | inconclusive: 39.8 µM [inhibitor, single point] | 
Cn1c(SCc2n[nH]c(=S)n2-c2ccccc2)nnc1-c1ccccc1 | active: 8.91 µM | 
CCN(CC)CCN(C(=O)CCS(=O)(=O)c1ccccc1)c1nc2c(C)cc(C)cc2s1 | active: 44.7 µM | 
COc1ccc(C(CCN2CCOCC2)c2c(OC)cc(OC)c3c(-c4ccccc4)cc(=O)oc23)cc1 (configuration not stated) | inconclusive: 31.6 µM [inhibitor, partial curve, poor fit] | 
O=C(CCCN1CCN2CCCC2C1)c1ccc(F)cc1 (configuration not stated) |  | inactive: -50.1% [at 12.7 µM]
CCC(CC)NC(=O)COC(=O)c1cc(Br)ccc1Cl | inconclusive: 15.8 µM [inhibitor, single point] | 
CC(=O)N1c2c(cc(Br)cc2S(=O)(=O)N2CCN(C(=O)c3ccco3)CC2)CC1C (configuration not stated) | inconclusive: 20 µM [inhibitor, single point] | 
